Results: the RNAGym collection of RNA variant scans (doi:10.1093/nar/gkz1192)
The source gives no read counts; variants with many changes may rest on few reads.

B1: CPEB3 Ribozyme (parent)
chain: UAACAGGGGGCCACAGCAGAAGCGUUCACGUCGCAGCCCCUGUCAGAUUCUGGUGAAUCUGCGAAUUCUGCUGUAUAUCUC

Variants of: B1
Test: self-cleavage, relative activity (ratio to wild type); higher = more cleavage; in vitro, sequencing
Outline: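 For each CPEB3 ribozyme variant, relative activity is its cleaved/total read fraction divided by the unmutated ribozyme's. Barcoded error-prone PCR libraries were transcribed by T7 RNA polymerase (5 hours, 37°C) and held in DNase I for 15 min before an EDTA stop, with cleavage occurring throughout. Template-switching reverse transcription and Illumina sequencing were used to read the RNAs. A 5-read minimum applied, and results are the mean of three batches.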

Row | Variant | self-cleavage
1 | U49C U67A U69C A77U U78C U80C | 0.13
2 | U49C A56G U67C U78G | 0.15
3 | U49C U54A U60A | 0.11
4 | U49C U54A U60C | 0.21
5 | U49C U51A A65G | 0.22
6 | U48C U66C U69C G73A U76C | 0.19
7 | U49C U60C U69C U80C | 0.1
8 | U49A U72C U78C | 0.93
9 | U49A A56G U58C U80C | 0.17
10 | U49C A65G U74C | 0.14
11 | U49C U67C A77U | 0.15
12 | U49C A57G A65U U78C | 0.36
13 | U49C G53A U54C U66C | 0.14
14 | U48C U69C U78A | 0.47
15 | U49C A64G U74A | 0.19
16 | U49C U51C A64G | 0.2
17 | U49C A64G U78C | 0.1
18 | U49C A64U U76C | 0.16
19 | U49C A56G A65G U66C | 0.16
20 | U49C A56U A64U | 0.08
21 | U48G A56G A57G A75U U80C | 0.21
22 | U48C U51C A57U | 0.22
23 | U49A U67C U72C U76C | 0.4
24 | U49A A56G U60C U69C U80A | 0.13

Row | Variant | self-cleavage
25 | U48C G55U U58C | 0.14
26 | U49C A56U U72C U76A | 0.16
27 | U49C A56G U80A | 1.27
28 | U49A A56G A64U | 0.2
29 | U48C U54A A56U U60C | 0.23
30 | U49A A64C U80C | 0.17
31 | U49C G55C A56G U80C | 1.24
32 | U49A U58A A75C | 0.19
33 | U49A A64U A75G | 0.14
34 | U49C A64C A65G U76C | 0.14
35 | U49C U58C C71U | 0.15
36 | U49C U54C U66A A77G U78C | 0.11
37 | U48C U69C U72C | 0.34
38 | U49C U74A U78C | 0.65
39 | U49C U58C U60C U80C | 0.35
40 | U49A A56G U67C | 0.21
41 | U49C A64G U72A A77G | 0.09
42 | U49A U51A U60C U66A U80C | 0.16
43 | U49A U54C U60C A64G U78C | 0.15
44 | U49A U54C U67C | 0.17
45 | U49C G53C U72A | 0.24
46 | U49C U51C U76A A77G | 0.14
47 | U49C U76A U80A | 0.23
48 | U49A U58C C62U | 0.18

Row | Variant | self-cleavage
49 | U49C A64G C81A | 0.21
50 | U49C G55U C59U | 0.1
51 | U49C U67C A75U | 0.16
52 | U49C A57G A77U | 0.21
53 | U49C U69A C81A | 0.24
54 | U48C U54A U72A | 0.45
55 | U49C G52A G61A | 0.16
56 | U49C A56G U60A U76A | 0.49
57 | U48C U51C C62U | 0.31
58 | U48G U49A G63A | 0.2
59 | U49C U58A U74A | 0.16
60 | U49C U54A A57U G61C | 0.15
61 | U48C U51A A64G | 0.18
62 | U49C U54G U58C U66C | 0.07
63 | U48C U54A U67G | 0.68
64 | U49A A56G U66A U67A | 0.35
65 | U48C U60A U72G A75U | 0.14
66 | U49C U54C U76C | 0.32
67 | U49C U58C C62U C71U | 0.06
68 | U49C U69A A75G | 0.34
69 | U48C U60G U69C | 0.18
70 | U48C C50U U69C | 0.16
71 | U49A A65G U69A | 0.31
72 | U49A U54C A65G | 0.24

Row | Variant | self-cleavage
73 | U49C U54G A57G U66C | 0.16
74 | U49C A57G A64G A65G | 0.07
75 | U49A A56U A57G | 0.98
76 | U48C U51A A64U A77U U80C | 0.12
77 | U49C U54C U78C | 0.41
78 | U49C G55U U60C A75G | 0.15
79 | U49C A64G U66C U72C A77G | 0.1
80 | U48C U51C A57U A65G G73U | 0.26
81 | U48C G55U U60C | 0.12
82 | U48C C62U U72C U78C | 0.18
83 | U49A G53A A56G | 0.72
84 | U48C U67A U80C | 0.44
85 | U48C C50G U74A U80C | 0.25
86 | U49C C50G U74C | 1.13
87 | U48C U72C U76C | 0.46
88 | U48C U51C U58C G61A U72C C79A | 0.13
89 | U48C U54C U67C U69A U72C C79U | 0.15
90 | U48C U51A G55U A57G U69C | 0.17
91 | U49C A64U U66A | 0.23
92 | U49C G52A U58C U69A | 0.19
93 | U48C U49C A56G A65C U76C U78C | 0.08
94 | U48C U51A A57G U72C | 0.82
95 | U49C U80A C81U | 0.52
96 | U48C C71U U72C U80G | 0.39

Row | Variant | self-cleavage
97 | U49A U69C U80A | 0.47
98 | U49A U66C U80A | 0.25
99 | U49A U51G U60G | 0.14
100 | U49A U66C A75G | 0.17
101 | U48C U72A U78C | 0.48
102 | U48C U72A U78A | 0.33
103 | U49C U66C U80A | 0.08
104 | U48C U60C U66C | 0.17
105 | U48C A64U U72C | 0.14
106 | U48C A65G G73A | 0.47
107 | U49C U72C U80C | 0.61
108 | U49C C59U U80A | 0.23
109 | U48C U51C C71G C81G | 0.07
110 | U48C U67C A75U | 0.13
111 | U49A A64G C79U | 0.59
112 | U48C U66C U67C | 0.12
113 | U49C A77G U78C | 0.42
114 | U49A U72A A77C | 0.31
115 | U49A U72A A77U | 0.21
116 | U49C U66A U78G | 0.16
117 | U48C A75C U78A | 0.93
118 | U49C U76C C79U | 0.49
119 | U49C U54C A65G U74C U78C | 0.23
120 | U49A U51C U67C U78A | 0.5

Row | Variant | self-cleavage
121 | U48C U54C U66C | 0.13
122 | U48C G70C U78C | 0.23
123 | U48C U66C U78A | 0.29
124 | U49C A65G U78C C81A | 0.1
125 | U48C G53A U66C U72C | 0.4
126 | U48C G70A U72C | 0.19
127 | U48G A64G A77U | 0.26
128 | U49A A56G U58C U72G | 0.28
129 | U49C U51C U54G U60C | 0.12
130 | U49A A56G A57C | 0.15
131 | U49A A56G A57G | 0.19
132 | U48C U67C U80C | 0.31
133 | U48C U58C G73A U78C | 0.34
134 | U49C A56G U58A A64U U69C U80C | 0.07
135 | U49A U60C U66C | 0.15
136 | U48C A65G A77C | 0.1
137 | U49A A56U U67C | 0.14
138 | U48C A65G U66C U67A | 0.2
139 | U48C A64U U78C | 0.15
140 | U48C U69C U72C U76A | 0.25
141 | U49C A65G U67C U80C | 0.11
142 | U49A U51A A56G | 0.18
143 | U48C U54C U69A U78C | 0.09
144 | U49C C50A U66C | 0.25

Row | Variant | self-cleavage
145 | U48C G53A U67C | 0.47
146 | U48C U49C U72C | 0.16
147 | U49A U51C A64G | 0.39
148 | U49C U58C U69G U78C | 0.04
149 | U48G U51A U54C U67C | 0.31
150 | U49C U51A U69C | 0.25
151 | U48C U58A A65G | 0.14
152 | U49C U51A U54G G63U U67C | 0.07
153 | U49A U51A A77G | 0.26
154 | U49C A56U U69A | 0.21
155 | U48C U58C U80C | 0.14
156 | U49C U72C U76C | 0.4
157 | U49A U54C U60C U78A | 0.21
158 | U48G U72C U74A | 0.33
159 | U48C C59U G63U A65U | 0.11
160 | U49A A56G U58C U60C | 0.15
161 | U49C G61A A77G | 0.38
162 | U49C G55C U80C | 0.37
163 | U49C U51A U60A | 0.19
164 | U49A U54C A56G | 0.26
165 | U49C U60A U67C | 0.08
166 | U48C G53U C62U | 0.13
167 | U49C U54C A56G U78C | 1.1
